Values marked as one replicate rest on one cluster of the flow cell; about a third of the high ones do not repeat.
test system: ATP; experiment: switch fluorescence ratio, 500 uM ATP over buffer (Cy3 cluster intensity, sum of 5 cycles each) (fold (ratio)); higher = stronger signal-on switching upon ATP binding; sequences stand for … in TCGTCGGCAGCGTCAGATGTGTATAAGAGACAGTTTTTTTTTTTTTTTTTTTTTTTTT…TC; settings: aptamer strand: ATP DNA aptamer (quencher-CACCTGGGGGAGTATTGCGGAGGAAGG + anchor), 100 nM annealed; ATP concentration: 500 uM; one replicate
Summary of the method: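 Cy3-labelled switching-strand clusters on a modified Illumina MiSeq flow-cell were annealed to 100 nM quencher-labelled ATP aptamer and imaged first in selection buffer, then after 15 min with 500 uM ATP at 22 °C. NaOH stripping and re-annealing separated each of five buffer/ATP cycles, and clusters outside 100-1000 RFU were excluded. The fluorescence ratio sums target-cycle Cy3 intensity over buffer-cycle Cy3 intensity per cluster and averages it per switch-domain sequence.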
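Further: ATP exposure 15 min at 22 °C before imaging.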

Q: How did the switch fluorescence ratio turn out when GGCTTTGTCA was run?
A: 0.989

Q: For GGGAACAGAT, which switch fluorescence ratio is on record?
A: 1.03

Q: How did the switch fluorescence ratio turn out when GGGAACCCGT was run?
A: 0.98

Q: For GGGAACGCGC, which switch fluorescence ratio is on record?
A: 1.04

Q: With GGGAAGCTAG as the sequence, how does the switch fluorescence ratio read?
A: 0.944

Q: Which switch fluorescence ratio does the source give for GGGAAGCTGG here?
A: 1.12

Q: With GGGAAGGCGA as the sequence, how does the switch fluorescence ratio read?
A: 1.01

Q: With GGGAATATCT as the sequence, how does the switch fluorescence ratio read?
A: 0.972

Q: GGGAATGAAA was tested. Which switch fluorescence ratio did it give?
A: 0.989

Q: How did the switch fluorescence ratio turn out when GGGAATGATT was run?
A: 0.992

Q: How did the switch fluorescence ratio turn out when GGGAATGCTG was run?
A: 1.26

Q: With GGGACAATTA as the sequence, how does the switch fluorescence ratio read?
A: 1.02

Q: With GGGACACCCG as the sequence, how does the switch fluorescence ratio read?
A: 0.951

Q: For GGGACACTCT, which switch fluorescence ratio is on record?
A: 1

Q: For GGGACAGAAA, which switch fluorescence ratio is on record?
A: 1.09

Q: With GGGACATGAG as the sequence, how does the switch fluorescence ratio read?
A: 0.975

Q: Which switch fluorescence ratio does the source give for GGGACCTAAA here?
A: 0.998

Q: GGGACGAAGT was tested. Which switch fluorescence ratio did it give?
A: 0.95

Q: For GGGACTATGC, which switch fluorescence ratio is on record?
A: 1

Q: How did the switch fluorescence ratio turn out when GGGACTCCGT was run?
A: 1.04

Q: Which switch fluorescence ratio does the source give for GGGACTTTAG here?
A: 0.935

Q: With GGGAGAAACT as the sequence, how does the switch fluorescence ratio read?
A: 1.04

Q: With GGGAGACCGT as the sequence, how does the switch fluorescence ratio read?
A: 1.03

Q: GGGAGACGAC was tested. Which switch fluorescence ratio did it give?
A: 0.99

Q: How did the switch fluorescence ratio turn out when GGGAGACTGA was run?
A: 0.984

Q: For GGGAGAGACG, which switch fluorescence ratio is on record?
A: 0.915

Q: For GGGAGAGGAG, which switch fluorescence ratio is on record?
A: 0.992

Q: Which switch fluorescence ratio does the source give for GGGAGATATC here?
A: 0.974

Q: Which switch fluorescence ratio does the source give for GGGAGCGATG here?
A: 1.07

Q: With GGGAGCGTTA as the sequence, how does the switch fluorescence ratio read?
A: 0.977

Q: GGGAGCTTTC was tested. Which switch fluorescence ratio did it give?
A: 1.05

Q: For GGGAGCTTTG, which switch fluorescence ratio is on record?
A: 1.02

Q: For GGGAGGAAT, which switch fluorescence ratio is on record?
A: 0.991

Q: With GGGAGGGAGA as the sequence, how does the switch fluorescence ratio read?
A: 1.03

Q: How did the switch fluorescence ratio turn out when GGGAGGTTAT was run?
A: 1.03

Q: GGGAGTAGTC was tested. Which switch fluorescence ratio did it give?
A: 0.983

Q: For GGGAGTGTTG, which switch fluorescence ratio is on record?
A: 0.952

Q: How did the switch fluorescence ratio turn out when GGGATAACGA was run?
A: 1.01

Q: GGGATCATTC was tested. Which switch fluorescence ratio did it give?
A: 0.994

Q: With GGGATCCAG as the sequence, how does the switch fluorescence ratio read?
A: 1

Q: How did the switch fluorescence ratio turn out when GGGATCGCAT was run?
A: 1.04

Q: For GGGATCTATT, which switch fluorescence ratio is on record?
A: 0.967

Q: With GGGATCTTCT as the sequence, how does the switch fluorescence ratio read?
A: 0.977

Q: GGGATGATCG was tested. Which switch fluorescence ratio did it give?
A: 0.859

Q: How did the switch fluorescence ratio turn out when GGGATGGCTC was run?
A: 0.976

Q: With GGGATTATAG as the sequence, how does the switch fluorescence ratio read?
A: 1.03

Q: Which switch fluorescence ratio does the source give for GGGATTCCTT here?
A: 0.998

Q: How did the switch fluorescence ratio turn out when GGGATTCTGG was run?
A: 0.97

Q: For GGGATTTCGT, which switch fluorescence ratio is on record?
A: 0.987

Q: GGGCAACAGC was tested. Which switch fluorescence ratio did it give?
A: 1.06

Q: For GGGCACAATT, which switch fluorescence ratio is on record?
A: 1.04

Q: With GGGCACACTT as the sequence, how does the switch fluorescence ratio read?
A: 1.01

Q: Which switch fluorescence ratio does the source give for GGGCACCATT here?
A: 0.977

Q: GGGCACCGAT was tested. Which switch fluorescence ratio did it give?
A: 1

Q: How did the switch fluorescence ratio turn out when GGGCAGAGTC was run?
A: 0.998

Q: For GGGCAGATAG, which switch fluorescence ratio is on record?
A: 1.06

Q: GGGCAGCAAT was tested. Which switch fluorescence ratio did it give?
A: 1.72

Q: GGGCAGTACC was tested. Which switch fluorescence ratio did it give?
A: 3.13

Q: With GGGCAGTCCT as the sequence, how does the switch fluorescence ratio read?
A: 1.01

Q: How did the switch fluorescence ratio turn out when GGGCATTCGG was run?
A: 0.974

Q: How did the switch fluorescence ratio turn out when GGGCATTGGC was run?
A: 1.07

Q: Which switch fluorescence ratio does the source give for GGGCCAAACC here?
A: 0.95

Q: For GGGCCACTCT, which switch fluorescence ratio is on record?
A: 1.03

Q: How did the switch fluorescence ratio turn out when GGGCCAGCCT was run?
A: 1.01

Q: For GGGCCAGGCC, which switch fluorescence ratio is on record?
A: 1.01

Q: For GGGCCATTTA, which switch fluorescence ratio is on record?
A: 1.01

Q: How did the switch fluorescence ratio turn out when GGGCCATTTC was run?
A: 0.959

Q: For GGGCCCAAGT, which switch fluorescence ratio is on record?
A: 1.01

Q: Which switch fluorescence ratio does the source give for GGGCCCACAC here?
A: 0.969

Q: For GGGCCCCCAT, which switch fluorescence ratio is on record?
A: 0.983

Q: For GGGCCGACTT, which switch fluorescence ratio is on record?
A: 1

Q: Which switch fluorescence ratio does the source give for GGGCGAAAGT here?
A: 0.992

Q: For GGGCGAATCT, which switch fluorescence ratio is on record?
A: 0.997

Q: How did the switch fluorescence ratio turn out when GGGCGACATC was run?
A: 1.17

Q: Which switch fluorescence ratio does the source give for GGGCGAGGAA here?
A: 1.02

Q: Which switch fluorescence ratio does the source give for GGGCGAGGAC here?
A: 1.02

Q: For GGGCGAGGCT, which switch fluorescence ratio is on record?
A: 0.989

Q: GGGCGCCGGG was tested. Which switch fluorescence ratio did it give?
A: 0.98

Q: With GGGCGCCTAC as the sequence, how does the switch fluorescence ratio read?
A: 1.55

Q: Which switch fluorescence ratio does the source give for GGGCGCGCGC here?
A: 1.05

Q: Which switch fluorescence ratio does the source give for GGGCGGGTTC here?
A: 1.04

Q: With GGGCGTGCTC as the sequence, how does the switch fluorescence ratio read?
A: 0.984

Q: With GGGCGTGTAT as the sequence, how does the switch fluorescence ratio read?
A: 1.03

Q: How did the switch fluorescence ratio turn out when GGGCTACACA was run?
A: 0.958

Q: GGGCTACCGA was tested. Which switch fluorescence ratio did it give?
A: 0.988

Q: GGGCTATTGG was tested. Which switch fluorescence ratio did it give?
A: 1.01

Q: Which switch fluorescence ratio does the source give for GGGCTCAAAT here?
A: 1

Q: With GGGCTCACTG as the sequence, how does the switch fluorescence ratio read?
A: 1.01

Q: For GGGCTCGGCT, which switch fluorescence ratio is on record?
A: 0.984

Q: GGGCTGCGGG was tested. Which switch fluorescence ratio did it give?
A: 0.964

Q: With GGGCTGGGAC as the sequence, how does the switch fluorescence ratio read?
A: 1.11

Q: Which switch fluorescence ratio does the source give for GGGCTGTACC here?
A: 1.02

Q: Which switch fluorescence ratio does the source give for GGGCTTTGA here?
A: 1.01

Q: How did the switch fluorescence ratio turn out when GGGCTTTGGT was run?
A: 0.99

Q: How did the switch fluorescence ratio turn out when GGGGAACACG was run?
A: 1.03

Q: For GGGGAACGCG, which switch fluorescence ratio is on record?
A: 1.13

Q: GGGGAAGCAC was tested. Which switch fluorescence ratio did it give?
A: 1.17

Q: GGGGACCTA was tested. Which switch fluorescence ratio did it give?
A: 0.969

Q: Which switch fluorescence ratio does the source give for GGGGACCTCA here?
A: 1.06

Q: GGGGAGATCA was tested. Which switch fluorescence ratio did it give?
A: 0.964

Reference: the supplement of paper PMC10126150
